Test results reported in PMC4336329 (PLoS ONE, 2015).
In all, about 310,000 compounds went through this assay and about 14,000 (4.5%) showed an effect of 50% or more. Effects have a minus sign here. Some of the results follow.

biological target: human ether-à-go-go-related gene (hERG) potassium channel (human, UniProt Q12809); test: primary screen, population patch clamp on CHO cells stably expressing hERG
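Also: peak tail current of the secondary pulse compared with the same well before compound.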

human ether-à-go-go-related gene (hERG) potassium channel, sequence (Q12809 whole entry, looked up): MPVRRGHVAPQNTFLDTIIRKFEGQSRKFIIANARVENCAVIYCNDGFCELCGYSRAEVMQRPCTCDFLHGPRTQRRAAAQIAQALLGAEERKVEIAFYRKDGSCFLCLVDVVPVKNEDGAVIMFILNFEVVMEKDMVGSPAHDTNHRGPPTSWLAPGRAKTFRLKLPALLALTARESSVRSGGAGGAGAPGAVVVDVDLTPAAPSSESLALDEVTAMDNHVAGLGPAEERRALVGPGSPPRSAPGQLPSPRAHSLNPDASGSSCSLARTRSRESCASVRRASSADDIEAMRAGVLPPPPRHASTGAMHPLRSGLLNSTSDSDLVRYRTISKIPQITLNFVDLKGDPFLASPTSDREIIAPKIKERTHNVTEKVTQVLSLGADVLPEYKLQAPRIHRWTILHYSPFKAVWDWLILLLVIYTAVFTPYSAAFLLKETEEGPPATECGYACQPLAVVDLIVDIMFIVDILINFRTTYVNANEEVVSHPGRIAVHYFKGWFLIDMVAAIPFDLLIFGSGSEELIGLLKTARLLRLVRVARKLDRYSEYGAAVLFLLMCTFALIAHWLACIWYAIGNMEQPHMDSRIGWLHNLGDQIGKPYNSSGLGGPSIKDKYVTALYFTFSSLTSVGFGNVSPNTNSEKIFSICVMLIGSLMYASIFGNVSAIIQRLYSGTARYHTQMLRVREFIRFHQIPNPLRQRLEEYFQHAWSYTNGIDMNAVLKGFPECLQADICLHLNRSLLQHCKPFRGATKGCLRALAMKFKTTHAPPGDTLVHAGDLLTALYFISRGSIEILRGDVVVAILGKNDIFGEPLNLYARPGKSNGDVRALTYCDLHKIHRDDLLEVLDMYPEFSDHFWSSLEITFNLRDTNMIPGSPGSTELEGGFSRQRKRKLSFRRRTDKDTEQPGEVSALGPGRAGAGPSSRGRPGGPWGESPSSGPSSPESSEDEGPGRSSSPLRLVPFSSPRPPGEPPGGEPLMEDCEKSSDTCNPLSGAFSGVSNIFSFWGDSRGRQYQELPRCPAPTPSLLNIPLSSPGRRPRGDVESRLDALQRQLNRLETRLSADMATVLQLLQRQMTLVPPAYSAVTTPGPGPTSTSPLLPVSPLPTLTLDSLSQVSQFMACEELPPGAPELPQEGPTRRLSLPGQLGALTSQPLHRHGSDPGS

Structure (SMILES) | hERG current change (%, negative = inhibition) at 10uM [%]
CN(NC1OC(=O)c2ccccc21)c1ccccc1[N+](=O)[O-] (centres unmarked) | 9.64
O=C(Cn1cnc2ccccc21)NCc1ccccc1 | 9.76
Fc1ccc(N2CCN(c3nc(CN4CCOCC4)nc4scc(-c5ccccc5)c34)CC2)cc1 | -5.05
COC(=O)c1ccccc1-c1ccc(/C=N/Nc2nc(N3CCCC3)nc(N3CCCC3)n2)o1 | -7.83
CN(CCC#N)C(=O)Cn1nc(Cc2ccncc2)c2ccccc2c1=O | -9.03
Cn1c(SCC(=O)Nc2cccc(NC(=O)c3cccs3)c2)nnc1-c1ccncc1 | -11
COc1ccc2c(Cl)c(C(=O)N/N=C3\CCCC(=O)C3)sc2c1 | -9.05
COCCN1C(=O)N(c2cccc(OC)c2)C(=O)C1CC(=O)Nc1cccc(F)c1 (centres unmarked) | 8.84
COC(=O)[C@H](CCSC)NC(=O)Nc1cccc(C)c1C | 12.9
CCOC(=O)c1sc2nc(CSc3nc4ccccc4n3CC)[nH]c(=O)c2c1C | 4.55
COC(=O)c1nc(NC(=O)c2ccccc2)n[nH]1 | -9.58
O=C1S/C(=C\C=C\c2ccco2)C(=O)N1c1ccccc1 | 1.52
Cc1ccnc(NC(=O)c2ccc(C(=O)c3ccccc3)cc2)c1 | -13.1
COc1ccccc1NC(=O)C(C)N1C(=O)c2ccccc2C1=O (centres unmarked) | 5.76
Cn1c(=O)c2c(-c3ccccc3F)c3c(nc2n(C)c1=O)-c1ccccc1C3O (centres unmarked) | -1.86
Cc1sc2ncnc(Sc3nnnn3-c3ccccc3)c2c1C | -2.04
CC(C)(C)c1ccc(OCC(=O)Nc2ccc(C(=O)Nc3ccccc3C(=O)O)cc2)cc1 | 30.4
CC(=O)O/N=C/c1c(NCc2ccccc2)nc2c(C)cccn2c1=O | -5.54
Cc1ccccc1NC(=O)/C(=C/c1ccco1)c1ccccc1 | -3.77

Structure (SMILES) | hERG current change (%, negative = inhibition) at 10uM [%]
Cn1cnnc1Sc1cc(N2CCN(S(=O)(=O)c3ccccc3)CC2)ccc1[N+](=O)[O-] | -60.5
O=C(Nc1ccc(CN2CCCCC2)cc1)c1cccc(Br)c1 | -86.7
CCOc1ccc(CCNC(=O)CSc2cc(=O)n(C)c3cc(Cl)ccc23)cc1OCC | -3.7
CN(CCOc1ccccc1)C(=O)c1ccc(OC2CCN(C(=O)C3CC3)CC2)cc1 | -25.7
CN(Cc1ccccc1)C(=O)COC(=O)c1cc(-c2ccc(Cl)s2)nc2ccccc12 | -4.81
C[C@@H]1CC=C[C@H]2[C@H]1C(=O)N(Cc1ccccc1)[C@H]2c1ccc2ccccc2c1/C=C/c1ccccc1 | 9.88
Cc1ccc(S(=O)(=O)NCc2ccncc2)cc1C | 18.1
COc1ccc(OC)c(C(=O)c2ccc(C(=O)O)cc2)c1 | 5.23
COc1ccc(C(=O)Cn2c(NCCCl)nc3ccccc32)cc1.Cl | -9.33
CCOc1ccc(C2CC(=O)NC(SC)=C2C#N)cc1 (centres unmarked) | 8.52
Cc1c(C)c(C)c(C(=O)C2CCN(c3ccc([N+](=O)[O-])cn3)CC2)c(C)c1C | 12.8
Cc1nc2ccccc2nc1N1CCC(C)CC1 | -5.78
Cc1ccc(NC(=O)C2CCCN(C(=O)c3ccc(Cl)cc3)C2)cc1S(=O)(=O)N1CCOCC1 (centres unmarked) | -23.9
O=C(CSCc1ccc(Cl)cc1)Nc1ccc(-c2nnc(-c3ccccc3)o2)cc1 | 1.35
O=C1CSC(c2ccccc2)N1c1ccc([N+](=O)[O-])cc1 (centres unmarked) | -32.5
C/C(N)=C(/C#N)C(=O)CSc1nnc(Cc2ccccc2F)n1N | 8.69
CCCCOc1ccc(C2CC(=O)N(C)C2=O)cc1 (centres unmarked) | -3.48
COc1ccc(C(=O)c2c3ccc([N+](=O)[O-])cc3[n+]([O-])n2CCCC(N)=O)cc1 | -34.6
CCC(=O)N1CCN(c2ccc(NC(=O)c3ccccc3)cc2)CC1 | 0.185

Structure (SMILES) | hERG current change (%, negative = inhibition) at 10uM [%]
COc1ccc(C(=O)NCCCCc2ccccc2)cc1 | -4.68
Cc1cccc(OCCn2c(=S)[nH]c3ccccc32)c1 | 11
Cc1ccc(-c2nc(N)sc2C)cc1 | -16.9
CCOC(=O)CN1C(=O)C(=O)N(Cc2cccc(C)c2)C1=O | 13.1
COc1ccc(COCC(O)CN2CCCC(C(F)(F)F)C2)cc1 (centres unmarked) | 2.45
CCN(CC)S(=O)(=O)c1cccc(N=NC2=C(O)CCCC2=O)c1 | -15.7
O=C(CCn1c(=O)oc2ccccc21)NCc1cccs1 | 5.01
COc1ccc(C)cc1NC(=O)C(NC(=O)c1cc(OC)c(OC)c(OC)c1)C(C)C (centres unmarked) | 12
CCc1nnc(NC(=O)CSc2nc3c(cc2C#N)CCC3)s1 | -6.61
CCc1ccccc1NC(=S)N1CCNC(=O)C1CC(=O)OC (centres unmarked) | 15.1
Cc1ccc(NC(=O)CCN2C(=O)CSC2=O)cc1 | 3.32
COc1ccc(-c2noc(N3CCC(C(=O)Nc4cc(OC)ccc4OC)CC3)n2)cc1 | -0.199
COc1ccc(N2C(=O)CC(Sc3nnc(-c4ccccc4F)n3C)C2=O)cc1 (centres unmarked) | 19.8
COc1ccc(CC(=O)N2CCC3(CC2)NCCc2[nH]cnc23)cc1 | 20.3
CCn1c(CC(=O)Nc2ccc(C)cc2)n[nH]c1=S | 21.6
O=C(CCc1ccccc1Cl)Nc1cccc(S(=O)(=O)N2CCCC2)c1 | 0.824
COC(=O)c1sccc1NC(=O)c1ccccc1[N+](=O)[O-] | 3.79
Clc1cccc(/C=N/N2CCN(Cc3ccccc3)CC2)c1 | 11.6
